Reference: the supplement of paper PMC12217912
The list shows a part of the results. The full chains were built here from the parent and the listed change. Values near 0.05 are background.

B1: TEV protease; numbered along this chain (parent)
chain: MGESLFKGPRDYNPISSSICHLTNESDGHTTSLYGIGFGPFIITNKHLFRRNNGTLVVQSLHGVFKVKDTTTLQQHLVDGRDMIIIRMPKDFPPFPQKLKFREPQREERICLVTTNFQTKSMSSMVSDTSCTFPSGDGIFWKHWIQTKDGQCGSPLVSTRDGFIVGIHSASNFTNTNNYFTSVPKNFMELLTNQEAQQWVSGWRLNADSVLWGGHKVFMVKPEEPFQPVKEATQL

Variants of: B1
Experiment: raw area under fraction-flipped curve 0-4 h after induction (AUC4h, not background-subtracted), DNA-recorder readout of cleavage of the substrate (dimensionless); higher = more cleavage of the substrate by the protease variant
Settings: temperature: 34 °C; time window: 0-4 h after rhamnose induction
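Further: Bxb1 expression induced with 0.2% (w/v) L-rhamnose at OD600 near 0.5, cultures sampled hourly, flipped fraction per protease–substrate barcode pair counted by paired-end Illumina sequencing.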

Variant: MGESLFKGPRDYNPISSSICHLTNESDGHTTSLYGIGFGPFIITNKHLFRRNNGTLVVQSLHGVFKVKDTTTLQQHTVDGRDMIIIRMPKDFPPFPQKLKFREPQREERICLVTTNFQTKSMSSMVSDTSCTFPSGDGIFWKHWIQTKDGQCGSPLVSTRDGFIVGIHSASNFTNTNNYFTSVPKNFMELLTNQEAQQWVSGWRLNADSVLWGGHKVFMVKPEEPFQPVKEATQL [L77T]
- area with substrate ENLYFIS: 0.0433
- area with substrate ENLYFLS: 0.0641
- area with substrate ENLYFNS: 0.0422
- area with substrate ENLYFPS: 0.0556
- area with substrate ENLYFRS: 0.0446
- area with substrate ENLYFSS: 0.073
- area with substrate ENLYFTS: 0.0676
- area with substrate ENLYFVS: 0.0484
- area with substrate ENLYFWS: 0.0497

Variant: MGESLFKGPRDYNPISSSICHLTNESDGHTTSLYGIGFGPFIITNKHLFRRNNGTLVVQSLHGFFKVKDTTTLQQHLVDGRDMIIIRMPKDFPPFPQKLKFREPQREERICLVTTNFQTKSMSSMVSDTSCTFPSGDGIFWKHWIQTKDGQCGSPLVSTRDGFIVGIHSASNFTNTNNYFTSVPKNFMELLTNQEAQQWVSGWRLNADSVLWGGHKVFMVKPEEPFQPVKEATQL [V64F]
- area with substrate ENLYFIS: 0.0563
- area with substrate ENLYFKS: 0.0488
- area with substrate ENLYFSS: 0.0557

Variant: MGESLFKGPRDYNPISSSICHLTNESDGHTTSLYGIGFGPFIITNKHLFRRNNGTLVVQSLHGVFKVKDTTTLQQHLVDGRDMIIIRMPKDFPPFPQKLKFREPQREERICLVTTNFQTKSMSSMVSDTSCTFPSGDGIFWKHWIQTKDGQCGSPLVSTRDGFIVGIHSASNFTNTNNYFTSVPKNFMELLTNQEAQQWVSGWRFNADSVLWGGHKVFMVKPEEPFQPVKEATQL [L205F]
- area with substrate ENLYFFS: 0.0656
- area with substrate ENLYFHS: 0.0346
- area with substrate ENLYFIS: 0.0571
- area with substrate ENLYFKS: 0.0914
- area with substrate ENLYFLS: 0.0384
- area with substrate ENLYFTS: 0.0575
- area with substrate ENLYFVS: 0.0064
- area with substrate ENLYFWS: 0.0303
- area with substrate ENLYFYS: 0.0732
